Source: PubChem BioAssay AID504333 (National Center for Advancing Translational Sciences (NCATS), 2011)
Screen size: about 360,000 compounds; about 16,000 (4.4%) were called active. Inconclusive results, whose numbers are uncertain, are shown with a selection of clear calls. Calls come from the whole dose curve; as a rule, active = well fitted inhibition curve with a large enough effect; inconclusive = small, poorly fitted or top-dose-only effect; inactive = no such curve, though single readings can be large or run the other way. Potencies of inconclusive entries are doubtful fits and often do not repeat.

Target: Bromodomain adjacent to zinc finger domain protein 2B (Homo sapiens) (UniProt Q9UIF8)
Experiment: qHTS Assay for Inhibitors of BAZ2B; note: nearly all actives have a fitted effect of over 60% in size
Details: AlphaScreen BAZ2B-H3K14Ac peptide displacement; series mostly up to 114 µM
Procedure, shortened: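 Multi-concentration screen (max 110 uM) measuring displacement of acetylated histone H3 peptide from BAZ2B by AlphaScreen, using 50 nM protein, 50 nM peptide and 10 ug/mL streptavidin donor plus Ni-chelate acceptor beads.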
Potency is the fitted concentration of half-maximal effect; tags give direction and shape of the fitted curve.

Sequence of UniProt Q9UIF8 (Q9UIF8 whole entry, looked up, the tested form may be a part): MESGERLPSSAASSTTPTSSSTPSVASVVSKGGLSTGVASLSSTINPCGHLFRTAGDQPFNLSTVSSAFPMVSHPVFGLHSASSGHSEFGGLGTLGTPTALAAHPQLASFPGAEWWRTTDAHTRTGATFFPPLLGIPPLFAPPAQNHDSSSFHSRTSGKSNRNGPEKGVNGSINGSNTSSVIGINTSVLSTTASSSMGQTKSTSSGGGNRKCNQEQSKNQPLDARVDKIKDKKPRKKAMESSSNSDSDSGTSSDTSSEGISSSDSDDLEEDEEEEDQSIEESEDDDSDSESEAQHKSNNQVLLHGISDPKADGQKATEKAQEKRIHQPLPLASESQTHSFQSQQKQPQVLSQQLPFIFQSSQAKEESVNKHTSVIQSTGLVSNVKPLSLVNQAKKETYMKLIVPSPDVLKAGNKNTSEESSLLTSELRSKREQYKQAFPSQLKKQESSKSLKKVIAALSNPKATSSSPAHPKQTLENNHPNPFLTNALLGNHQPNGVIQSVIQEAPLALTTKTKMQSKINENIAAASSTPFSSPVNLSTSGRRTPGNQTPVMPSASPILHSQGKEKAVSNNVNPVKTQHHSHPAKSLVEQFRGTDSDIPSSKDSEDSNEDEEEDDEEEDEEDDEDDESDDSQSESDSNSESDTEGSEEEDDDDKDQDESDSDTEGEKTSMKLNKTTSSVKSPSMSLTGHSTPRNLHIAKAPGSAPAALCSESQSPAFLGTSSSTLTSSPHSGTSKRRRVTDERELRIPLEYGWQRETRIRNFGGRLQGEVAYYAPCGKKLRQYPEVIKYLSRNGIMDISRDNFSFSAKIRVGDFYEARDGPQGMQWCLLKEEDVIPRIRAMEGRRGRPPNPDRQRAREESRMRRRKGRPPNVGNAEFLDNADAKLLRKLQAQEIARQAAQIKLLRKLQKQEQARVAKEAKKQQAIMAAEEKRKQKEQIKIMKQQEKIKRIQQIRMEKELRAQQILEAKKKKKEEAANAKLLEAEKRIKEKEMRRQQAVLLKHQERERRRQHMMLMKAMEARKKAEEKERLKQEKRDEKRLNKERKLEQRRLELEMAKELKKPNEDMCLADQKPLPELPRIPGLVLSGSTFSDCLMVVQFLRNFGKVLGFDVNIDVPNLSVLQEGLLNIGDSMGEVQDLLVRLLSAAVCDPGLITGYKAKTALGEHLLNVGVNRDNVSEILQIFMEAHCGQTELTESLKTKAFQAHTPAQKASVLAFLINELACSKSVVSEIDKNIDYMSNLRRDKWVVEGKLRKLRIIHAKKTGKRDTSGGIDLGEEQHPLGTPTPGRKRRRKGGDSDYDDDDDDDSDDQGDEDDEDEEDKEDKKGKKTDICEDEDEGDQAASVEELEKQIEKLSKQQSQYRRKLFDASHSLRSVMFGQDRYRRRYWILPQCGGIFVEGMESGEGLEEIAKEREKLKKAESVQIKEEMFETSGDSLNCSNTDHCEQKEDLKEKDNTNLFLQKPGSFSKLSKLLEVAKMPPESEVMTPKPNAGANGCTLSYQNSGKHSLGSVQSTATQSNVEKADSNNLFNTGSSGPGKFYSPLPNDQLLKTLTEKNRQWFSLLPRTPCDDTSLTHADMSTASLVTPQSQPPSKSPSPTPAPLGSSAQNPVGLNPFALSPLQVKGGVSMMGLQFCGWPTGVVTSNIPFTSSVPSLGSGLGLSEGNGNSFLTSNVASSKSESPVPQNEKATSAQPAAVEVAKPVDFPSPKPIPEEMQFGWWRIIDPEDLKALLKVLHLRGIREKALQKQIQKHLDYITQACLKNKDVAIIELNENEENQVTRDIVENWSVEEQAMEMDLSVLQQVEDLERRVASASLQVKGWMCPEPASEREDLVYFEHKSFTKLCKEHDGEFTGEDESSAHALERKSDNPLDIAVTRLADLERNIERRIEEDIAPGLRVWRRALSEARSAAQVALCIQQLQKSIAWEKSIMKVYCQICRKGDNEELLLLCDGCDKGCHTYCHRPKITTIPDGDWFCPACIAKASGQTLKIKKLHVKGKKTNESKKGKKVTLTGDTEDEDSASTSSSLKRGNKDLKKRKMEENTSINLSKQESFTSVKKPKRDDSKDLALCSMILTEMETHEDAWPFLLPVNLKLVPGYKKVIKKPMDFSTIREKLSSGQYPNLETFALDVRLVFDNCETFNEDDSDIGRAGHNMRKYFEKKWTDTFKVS

SMILES	Potency
Cc1nc2cc(-c3cccs3)nn2c(NCC(C)(C)CN(C)C)c1C	inactive
CNC(=S)N(CCc1c(C)[nH]c2ccccc12)Cc1cc(OC)c(OC)c(OC)c1	active: 44.7 µM
CN1CCN(Cc2nc3ccccc3c(=O)n2Cc2nc(-c3ccc4ccccc4c3)cs2)CC1	inconclusive: 44.7 µM [inhibitor, partial curve]
COc1ccc(OC)c(S(=O)(=O)N2CCN(Cc3nc4ccc(C)cc4o3)CC2)c1	inactive
COc1ccc(CN2C(=O)c3cccnc3C2=O)cc1S(=O)(=O)N1CC(C)Oc2ccccc21 (stereo not drawn)	inconclusive: 79.4 µM [inhibitor, single point]
C/C(=N\NC(=O)COc1ccccc1-c1ccccc1)c1ccccn1	active: 56.2 µM
O=C1C(Cl)=C(N2CCCCC2)C(=O)C(Cl)=C1c1cnc(N2CCCCC2)s1	active: 44.7 µM
CC(=O)c1cccc(NC(=O)Cn2cc(C(=O)c3cccc(Cl)c3)c(=O)c3ccc(C)nc32)c1	inactive
CCN(CC)c1ccc(/C=C(/C#N)c2nc3ccc(C)cc3[nH]2)c(OC(C)C)c1	inconclusive: 79.4 µM [inhibitor, single point]
O=c1c2ccccc2c(-c2ccccc2)nn1-c1cc(Cl)ccc1[N+](=O)[O-]	inconclusive: 39.8 µM [inhibitor, full curve]
CCCC(=O)Nc1ccccc1C(=O)OCc1cc(=O)n2nc(C(C)C)sc2n1	inactive
COc1ccc(OCc2ccc(-c3nc(C#N)c(NCc4cccnc4)o3)o2)cc1	active: 17.8 µM
CCOC(=O)c1cc(S(=O)(=O)NCc2ccc(OC)cc2)[nH]n1	inconclusive: 89.1 µM [inhibitor, single point]
COC(=O)c1ccccc1NC(=O)Cn1c(=O)n(CCCC(=O)NCc2ccccc2Cl)c(=O)c2ccccc21	inactive
O=C(/C=C/c1ccc(Cl)cc1)N1CCN(c2ccccc2[N+](=O)[O-])CC1	inconclusive: 22.4 µM [inhibitor, full curve]
COc1ccc2nc(C)cc(Nc3ccc(N4CCOCC4)cc3)c2c1	inconclusive: 89.1 µM [inhibitor, single point]
Cn1c(-c2ccc3c(c2)OCO3)cnc1NC(=O)CCC(=O)NCCc1ccccc1	inconclusive: 79.4 µM [inhibitor, single point]
COc1cc(/C=C2\SC(=O)N(c3cccc(Cl)c3)C2=O)cc([N+](=O)[O-])c1O	active: 8.91 µM
Cc1nc(Nc2ccccc2)sc1-c1ccccc1	inconclusive: 89.1 µM [inhibitor, single point]
C=CCNc1nc(-c2sc(NC(=O)CC)nc2C)cs1	inconclusive: 50.1 µM [inhibitor, partial curve]
COc1ccc(C2CC(=O)N3CN(Cc4ccco4)CSC3=C2C#N)cc1 (stereo not drawn)	inconclusive: 50.1 µM [inhibitor, partial curve]
CC(C)(C)NC(=O)C(OC(=O)c1ccco1)c1ccc(Cl)cc1 (stereo not drawn)	inconclusive: 89.1 µM [inhibitor, single point]
COC(=O)C1NN=C(C(=O)c2ccc(Br)cc2)C1c1cccc(Br)c1 (stereo not drawn)	inconclusive: 79.4 µM [inhibitor, single point]

SMILES	Potency
COc1cc2c(C(=O)NCCCN3CCN(c4cccc(Cl)c4)CC3)cn(C)c(=O)c2cc1OC	inconclusive: 79.4 µM [inhibitor, single point]
COc1ccccc1-c1nnc(C2CCN(S(=O)(=O)c3cccc([N+](=O)[O-])c3)CC2)o1	inconclusive: 79.4 µM [inhibitor, partial curve]
CC(Oc1ccccc1)C(=O)Nc1nc(-c2ccccn2)cs1 (stereo not drawn)	active: 39.8 µM
COc1ccc(CCNc2nc(-c3ccc(O)cc3)cs2)cc1OC	inconclusive: 39.8 µM [inhibitor, partial curve]
Cc1cccc(OCc2nc(C#N)c(N3CCCC3)o2)c1	active: 39.8 µM
COc1ccc(N2CCN(CCCNC(=O)c3ccc4nc(Cc5ccccc5)oc4c3)CC2)cc1	active: 39.8 µM
COc1ccc(-n2c(=O)c3c(c4cc(OC)ccc4n3C)n(CC(=O)N3CCCC3)c2=O)cc1	inconclusive: 89.1 µM [inhibitor, single point]
Cc1cc(OCCN2CCOCC2)ccc1[N+](=O)[O-]	active: 50.1 µM
O=C(CSc1ccc(-c2nc3ccccc3[nH]2)cn1)N1CCN(C(=O)c2ccco2)CC1	inconclusive: 89.1 µM [inhibitor, single point]
Cc1cc(NC(=O)c2ccc(C#N)cc2)n(-c2ccccn2)n1	inactive
Cc1ccc(C)c(OC(=O)CSc2nnc(-c3cccs3)o2)c1	inactive
CN/N=C(\Cc1nc2ccccc2[nH]1)c1ccc([N+](=O)[O-])cc1	inconclusive: 44.7 µM [inhibitor, partial curve]
CC(C)=CC1C=C(C)C(C)C2C(=O)NNC(=O)C12 (stereo not drawn)	inconclusive: 6.31 µM [inhibitor, single point]
O=C1c2ccccc2C(=O)N1CCCc1nc(-c2ccccn2)no1	inconclusive: 89.1 µM [inhibitor, single point]
C=CCn1c(SCC(=O)Nc2cc(NC(C)=O)ccc2OC)nnc1-c1ccccn1	active: 79.4 µM
CCOc1ccccc1NC(=S)NCc1cccn1C	inconclusive: 89.1 µM [inhibitor, single point]
O=C(Nc1ccc(Br)cn1)c1cccc(-c2cc3ccccc3oc2=O)c1	inconclusive: 89.1 µM [inhibitor, single point]
Cc1cccc(NC(=O)CN2CCC(C(=O)c3ccc4c(c3)OCCO4)CC2)c1	inconclusive: 56.2 µM [inhibitor, partial curve]
Clc1ccc(/C=C/c2nc3ccccc3[nH]2)c(Cl)c1	inactive
COc1ccc(Cc2nnc(NC(=O)c3ccccc3[N+](=O)[O-])s2)cc1	inconclusive: 89.1 µM [inhibitor, single point]
C[C@H]1CC[C@H]2C(=O)N3[C@H](c4cccc(N5CCCC5=O)c4)[C@@H](C)CC[C@H]3C(=O)N2[C@@H]1c1cccc(N2CCCC2=O)c1	inactive
Cc1ccc2nc(-c3ccncc3)cc(C(=O)NCCc3ccc(F)cc3)c2c1	inconclusive: 79.4 µM [inhibitor, single point]
CC(C)C(=O)Nc1nnc(SCc2cc(=O)n3ccccc3n2)s1	inactive

SMILES	Potency
CC1=C(C(=O)Nc2cccc([N+](=O)[O-])c2)C2(CCC(C)CC2)OC1=O (stereo not drawn)	inconclusive: 89.1 µM [inhibitor, single point]
COc1ccc(N2CCN(S(=O)(=O)c3ccc4c(c3)NC(=O)C(C)S4)CC2)cc1 (stereo not drawn)	inconclusive: 89.1 µM [inhibitor, single point]
O=C(COC(=O)c1ccc(S(=O)(=O)C(F)F)cc1)NC(=O)NC1CCCCC1	inactive
COc1cc(/C=C2/SC(=S)N(CC3CCCO3)C2=O)ccc1O (stereo not drawn)	active: 44.7 µM
Cc1cc(C)c2nc(N(CCN(C)C)C(=O)/C=C/c3cccs3)sc2c1	inconclusive: 22.4 µM [inhibitor, full curve]
O=C(NCCc1c[nH]c2ccccc12)C1CCN(Cc2ccc(Br)cc2)CC1	inconclusive: 79.4 µM [inhibitor, single point]
CCCOc1ccc(C(=O)NC(=S)NCc2cccnc2)cc1	inconclusive: 50.1 µM [inhibitor, partial curve]
O=[N+]([O-])c1ccccc1/C=C/C=N/n1c(-c2ccccc2)n[nH]c1=S	inconclusive: 14.1 µM [inhibitor, full curve, poor fit]
O=C(O)c1ccc(CSc2nc(-c3ccc(Cl)cc3)cc(C(F)(F)F)n2)cc1	inconclusive: 89.1 µM [inhibitor, single point]
CC(=O)Nc1nc(-c2ccc3c(c2)CCN3S(C)(=O)=O)cs1	inconclusive: 89.1 µM [inhibitor, single point]
COC(=O)c1ccccc1NC(=O)Cn1c(CCC(=O)O)ccc1-c1ccc(C)cc1	inconclusive: 79.4 µM [inhibitor, single point]
CCOC(=O)C1CCN(C(=O)Cn2ncc3c4ccccc4n(Cc4ccccc4)c3c2=O)CC1	inactive
COc1ccc(/C=C2\C(=O)NC(=S)N2C(=O)c2ccc(C)cc2)cc1	active: 50.1 µM
Oc1ccc(-c2csc(Nc3cccc4ccccc34)n2)cc1O	active: 35.5 µM
Cc1ccccc1C(=O)N1CCN=C1SCc1ccc([N+](=O)[O-])cc1	inconclusive: 50.1 µM [inhibitor, partial curve]
COc1ccccc1OCC#CCn1ccnc1	active: 17.8 µM
CCn1nnc(C(=O)O)c1C(=O)O	inconclusive: 89.1 µM [inhibitor, single point]
O=C(CCN1C(=O)/C(=C/c2cccs2)SC1=S)NC1=NCCS1	inconclusive: 6.31 µM [inhibitor, full curve, poor fit]
COc1cc(C(=O)Nc2cc(-c3ccccc3)[nH]n2)cc(OC)c1OC	inconclusive: 89.1 µM [inhibitor, single point]
COc1ccc(-n2c(Cc3cccn3C)nnc2SCC(=O)Nc2ccccc2OC)cc1	inconclusive: 44.7 µM [inhibitor, partial curve]
O=c1c2cc(NC(=S)NCc3ccccn3)ccc2nc2n1CCCCC2	inconclusive: 70.8 µM [inhibitor, single point]
Nc1nc(N)c(N=Nc2ccc(S(N)(=O)=O)cc2)c(=O)[nH]1	inconclusive: 89.1 µM [inhibitor, single point]
